Reference: the supplement of paper PMC11417369
The list shows a part of the results.

Each sequence was assayed on PfSIP2 AP2 domain 1 (GST-tagged) (assay: gcPBM binding intensity (ln(normalized median fluorescence intensity)); higher = stronger DNA binding).
Summary of the method: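 For binding intensity, the highest Masliner-normalised natural-log median intensity across replicate spots of either probe orientation was taken. Protein bound to the array was stained with Alexa488 anti-GST antibody and scanned at 488 nm. The protein, GST-tagged P. falciparum DNA-binding domains from E. coli at about 25 μg on average, had been applied for 1 h to an Agilent 4 × 180k array of primer-extended double-stranded 36-bp intergenic genomic probes and negative controls.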

Compared with “TTTATTAATTAAACCATACACACATAATTTTTTTAT [CACACA_site842]”, “AAACGTGCGTATATGTGTACGCATATATATATATAT [XGTACX_site5252]” is higher in “gcPBM binding intensity (ln)” value: 7.16 for the first, 9.79 for the second.

Compared with “TATATATATATATATTGTACAAAGATTAATATATAA [XGTACX_site8433]”, “TATTTTAATAAGAATAAATGAAATGAAATGAAATAT [CACACA_negctrl_site823]” is lower in “gcPBM binding intensity (ln)” value: 9.36 for the first, 6.99 for the second.

Going from “ACTTAATTTTTTTATTGTACATGTAAATGAGGGAAA [XGTACX_site6305]” to “ACATCCTATAAATAGAGTACGTAAATTATAATACAC [XGTACX_site5338]”, the “gcPBM binding intensity (ln)” value falls from 7.48 to 7.24.

Compared with “ATGAATTTTTCTCTACAAAAGGATATAATAAAAATA [XGTACX_negctrl_site461]”, “TAGTGTGCCAAATTAGCACACACATATATACATGAA [CACACA_site8910]” is higher in “gcPBM binding intensity (ln)” value: 6.9 for the first, 7.01 for the second.

Going from “TTTTCTAATTAATATTGTACATAAATGTATATATAT [XGTACX_site4749]” to “CTTCTGGACAGGAATGCACACATTTTTTTTTCTTTT [CACACA_site1807]”, the “gcPBM binding intensity (ln)” value falls from 7.42 to 7.

Going from “GTTTTTATCATATCATGTACGTATTTTATTTTTTTT [XGTACX_site8643]” to “ATCAAAGATAAATTTACACACATATAAATATAAATA [CACACA_site7409]”, the “gcPBM binding intensity (ln)” value falls from 7.21 to 6.88.

First: GAAAAGTATAAAAAACGTACAAGTTTTATTTTCACA [XGTACX_site4604]
Second: CCCCTATAAATAGGGTGTACTAATAAATATTTTTAA [XGTACX_site1244]
The “gcPBM binding intensity (ln)” value of the first is lower: 6.89 for the first, 7.33 for the second.

Compared with “ACGGGCGACACATAAGTGCGCAAAAAAAAAAAAATA [GTGCAC_site9688]”, “TAAAATAAAAAGTTTACACACATATATAACTTTAAT [CACACA_site6456]” is lower in “gcPBM binding intensity (ln)” value: 8.29 for the first, 6.77 for the second.

Going from “AAAATACAGAAACACACACACACACCCATATATATA [CACACA_site3559]” to “TTTTATAAAACATGTAGTACATGAAAAAAAAAATTT [XGTACX_site1626]”, the “gcPBM binding intensity (ln)” value rises from 7.39 to 7.61.

Compared with GTATTCATTCCTTGAGTGCAATTGCAATAAATAAAA, “CATATTAAGATGTGTACACATTTTTATTTTTTTTTT [CACACA_site4425]” is lower in “gcPBM binding intensity (ln)” value: 9.21 for the first, 6.97 for the second.

First: AAATGACGAAATAAAATCATAAATTAAAATAAATAA [CACACA_negctrl_site655]
Second: ATAGCATTTCACAAATGTACATAAAAAAATAAAAAT [XGTACX_site402]
The “gcPBM binding intensity (ln)” value of the first is lower: 6.57 for the first, 7.21 for the second.

Going from “TAAAACAAAATGGTAACACACACATATATATATATA [CACACA_site8590]” to “AATATATAAATATATATAAATAAATATATATATAAA [CACACA_negctrl_site49]”, the “gcPBM binding intensity (ln)” value falls from 9.23 to 6.68.

Compared with “AAATGGAAATTAATATGTACATATTTATAAGTATGA [XGTACX_site1774]”, “TCCTATCATTTATATTTTACTACATAATATTGATAA [GTGCAC_negctrl_site286]” is higher in “gcPBM binding intensity (ln)” value: 7.1 for the first, 7.32 for the second.

Compared with “ATGTTTCTATAGATTTGTACATATTTCATATGAATA [XGTACX_site1053]”, “TTATTTTTTGTATGAACACACAACTTAATTATGATG [CACACA_site2448]” is lower in “gcPBM binding intensity (ln)” value: 7.13 for the first, 7 for the second.

First: TCTTTTCTTTTGTGTGTGCACATATAAGCATGAAAC [GTGCAC_site9910]
Second: TTTTACAAATATTTCTGTACACATTCTCATATAATT [XGTACX_site1974]
The “gcPBM binding intensity (ln)” value of the first is higher: 9.66 for the first, 7.16 for the second.

Going from “TTTTTTAATTAATTACCTTTGAATGTGTATTAGGAC [GTGCAC_negctrl_site651]” to “AATAATATATTATATGCATGTGTATAATTTGATATA [TGCATGCA_site1058]”, the “gcPBM binding intensity (ln)” value falls from 7.26 to 7.17.

First: TTTGGTTATTTGACCTGTACACATTTAATTATTTTT [XGTACX_site5170]
Second: CAAAGGAAATGGTGTACACAATTTTTCCTTTTTCGT [CACACA_site4800]
The “gcPBM binding intensity (ln)” value of the first is higher: 7.02 for the first, 6.9 for the second.

Going from “ATTATGAATTTAAGACGTACAAAAAATTTTTATTCA [XGTACX_site5682]” to “ACAAGTATTCCTTTTGCACACCTTTCTGCACCTTAT [CACACA_site3873]”, the “gcPBM binding intensity (ln)” value rises from 7.16 to 11.7.

Going from AAATACTTATTCGTGGTGCAACAATTTTAAAAATTA to “ATTAAAATAATACGTACACACATGTATAATACATAT [CACACA_site1005]”, the “gcPBM binding intensity (ln)” value falls from 9.9 to 7.52.

Compared with “TATTACATAATATATGTACACACGCAAATACTTATA [CACACA_site7994]”, “TAACAACGATACAATTGTACAAATTATATATATATA [XGTACX_site4687]” is higher in “gcPBM binding intensity (ln)” value: 7.08 for the first, 9.17 for the second.

Going from “CAAAAAAAGTTATACACACACACACGGATATAAATA [CACACA_site6619]” to “AGCAAGACGGGGTGCACACAAACTAATATGCCGAAT [CACACA_site159]”, the “gcPBM binding intensity (ln)” value rises from 6.97 to 12.1.

Compared with “AATATAATATACATATGTACATATATATATATATAT [XGTACX_site8218]”, “TATAACACACAATGATGTACATTACATTATTTTTTA [XGTACX_site2076]” is lower in “gcPBM binding intensity (ln)” value: 9.4 for the first, 7.06 for the second.

Compared with “TTTTCTATATAACAACGTACATTTATTATATTATAA [XGTACX_site6148]”, “ATATATATATATATGTGTACATATTTTTTTGAAGTG [XGTACX_site248]” is higher in “gcPBM binding intensity (ln)” value: 7.2 for the first, 9.61 for the second.

Compared with TAATATAAATGAAAGGTGCTTTTGCTTTCTTTTTTT, “AAAAAAAAAAAAAATACACACACACCGATATATATA [CACACA_site8142]” is higher in “gcPBM binding intensity (ln)” value: 7.08 for the first, 7.33 for the second.

First: ATACATATAATAATATGTACATATAATTATATATAT [XGTACX_site913]
Second: TAATATATTTTTAACATGCACTGTATTTTAATATAT
The “gcPBM binding intensity (ln)” value of the first is lower: 7.39 for the first, 9.48 for the second.

First: TCTGGATTGGATTACAAGAAAATAAAATATAAAATA [CACACA_negctrl_site122]
Second: TATACAAATATATATGCACACACATATATGTATATG [CACACA_site9007]
The “gcPBM binding intensity (ln)” value of the first is lower: 7.06 for the first, 7.36 for the second.

Going from “TATAAAACAAATATATGTACATATCATAGTATAATA [XGTACX_site2965]” to “TAATTAAAGTTATCTACACACCTTTATAGATATATA [CACACA_site7778]”, the “gcPBM binding intensity (ln)” value falls from 7.09 to 6.7.

First: AATTAAATGATTTATACATGCATATAAATATAAATA [TGCATGCA_site579]
Second: AGTAGAAAAGGAACATGTACGAATTAAAAAAATAAT [XGTACX_site2347]
The “gcPBM binding intensity (ln)” value of the first is higher: 7.03 for the first, 6.94 for the second.

Going from “TCTGTAAATATGTATACACACATATATGATCAATAT [CACACA_site3234]” to “ACATATATATATATATATATATATATATTTATTTAT [CACACA_negctrl_site734]”, the “gcPBM binding intensity (ln)” value rises from 7.11 to 8.04.

First: TACACCATGATACATACACACAGACATATACACATT [CACACA_site6601]
Second: AAAAAACATTTGATCTGTACGCATAGACAATTATAT [XGTACX_site960]
The “gcPBM binding intensity (ln)” value of the first is higher: 7.32 for the first, 7.07 for the second.

“AATAATATGTTATCTCTTACACATATAAAAAATAAA [XGTACX_negctrl_site370]” and “TAAAAGAAAGCACATACACACACAAAAAAAAAAAAG [CACACA_site8159]” are the same in “gcPBM binding intensity (ln)” value: 6.94 for the first, 6.94 for the second.

First: TTATACTGTACAAAAAGAATAGCAGTATAACAAAAA [CACACA_negctrl_site755]
Second: ACAGGATTGGTTCAAACACACATATTATAGGACTAT [CACACA_site6455]
The “gcPBM binding intensity (ln)” value of the first is higher: 7.03 for the first, 6.94 for the second.

Going from “AATATGTTTTGTTAGGTTGGTGTTGGTAGAATGTTT [CACACA_negctrl_site1563]” to “AAAAAAAAATCATATTGTACGTAAAAAAAAAAAAAA [XGTACX_site476]”, the “gcPBM binding intensity (ln)” value rises from 6.92 to 7.19.

Going from “CAATATATTTGATTTACACACTTACAATGTATTTAA [CACACA_site5632]” to “ATAATCCTTAGACACACACACACACGAATAAATAAA [CACACA_site6364]”, the “gcPBM binding intensity (ln)” value rises from 6.9 to 7.21.

First: CGAAAAAATAAAAAAAAAATAAAATAAAATAAATAA [TGCATGCA_negctrl_site278]
Second: AATCTAGGTATTTATACACACTAAAATAATATACGA [CACACA_site4515]
The “gcPBM binding intensity (ln)” value of the first is lower: 6.66 for the first, 6.91 for the second.

Going from “AAAAAAAAAAGAAACACACACATATAGATTTATAAC [CACACA_site6927]” to “ATTTAAATAATATTCACACACAAAATTAAATTTTAA [CACACA_site6246]”, the “gcPBM binding intensity (ln)” value rises from 6.96 to 7.11.

Compared with “AAAAAATTAACCGTAACACACACACCGATATATATA [CACACA_site9312]”, “GCTCTAATTAATATTTGTACACACATATTTAACCTA [XGTACX_site6808]” is higher in “gcPBM binding intensity (ln)” value: 7.18 for the first, 7.24 for the second.

Compared with “TTTTTTTTTTTTTTTTGTACATAATTCCATATTTTT [XGTACX_site1789]”, “TGATCTTTACACATATTATATATATATAAAAAAAAA [XGTACX_negctrl_site360]” is higher in “gcPBM binding intensity (ln)” value: 6.92 for the first, 7.22 for the second.

First: TTATAACATATAAACATGTTTCATCTTACGTATTTT [GTGCAC_negctrl_site694]
Second: TGTTATATCAATAATATATAATAATACCCTTCTTTT [CACACA_negctrl_site1682]
The “gcPBM binding intensity (ln)” value of the first is higher: 7.01 for the first, 6.63 for the second.

Going from “ATATTTAATTTGTATGGTACAGTACGATCTTTCTTT [XGTACX_site5533]” to ATAAGAATATATAGAGTGCGTTGAAGAATTATAATA, the “gcPBM binding intensity (ln)” value rises from 6.87 to 7.56.

Going from “CCCTCAACGAATTTGAGTACACATTTTAAATGATAT [XGTACX_site7763]” to “ATCGCAAGATTAATATAAGGAGAAACGTTTATATAT [GTGCAC_negctrl_site267]”, the “gcPBM binding intensity (ln)” value rises from 6.94 to 7.14.

First: GGCAACAATGTAGATTGTACATATGAATTTTACAAT [XGTACX_site5655]
Second: ATATTTTGTTTTATAGTGCACATGGGCATATATTAA [GTGCAC_site9435]
The “gcPBM binding intensity (ln)” value of the first is lower: 6.91 for the first, 9.82 for the second.

Compared with ATATATATTATCATTGTGCACTTATTTATATACCTT, “TTTACTTTTTTTTCTTGTACTCATACATACTATCAT [XGTACX_site4919]” is lower in “gcPBM binding intensity (ln)” value: 10.5 for the first, 7.19 for the second.

Going from “AAATTTCAATAATCTACACACATAAAAAAACAAAAG [CACACA_site1702]” to “TTTAATAAATAAATAAATAAAATATATTAAAAACCA [CACACA_negctrl_site80]”, the “gcPBM binding intensity (ln)” value falls from 7.36 to 6.87.

For “ATATTTTATTATTGTTGTACTTTTTTTTTTTGATTG [XGTACX_site4091]”, the “gcPBM binding intensity (ln)” value was 7.07.
